# In the supplement of paper PMC12217912:
# Some of the results follow. Sequences were assembled here from the parent chain. Inactive controls read about 0.05.
# B1: TEV protease; numbered along this chain (parent)
# chain: MGESLFKGPRDYNPISSSICHLTNESDGHTTSLYGIGFGPFIITNKHLFRRNNGTLVVQSLHGVFKVKDTTTLQQHLVDGRDMIIIRMPKDFPPFPQKLKFREPQREERICLVTTNFQTKSMSSMVSDTSCTFPSGDGIFWKHWIQTKDGQCGSPLVSTRDGFIVGIHSASNFTNTNNYFTSVPKNFMELLTNQEAQQWVSGWRLNADSVLWGGHKVFMVKPEEPFQPVKEATQL
# Variants of: B1
# Experiment: raw area under fraction-flipped curve 0-4 h after induction (AUC4h, not background-subtracted), DNA-recorder readout of cleavage of the substrate (dimensionless); higher = more cleavage of the substrate by the protease variant
# Details: temperature: 34 °C; time window: 0-4 h after rhamnose induction
# Experimental: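 In vivo DNA recorder in E. coli TOP10(DE3) ΔrhaA at 34 °C. Each TEVp single-site mutant (parent TEVp 0) is paired with a single-site variant of the 7-mer TEVs (canonical ENLYFQ|S). The substrate sits between flexible linkers in a Bxb1-sfGFP-TEVs-SsrA fusion, so cleavage stabilises Bxb1 and speeds flipping of a recombination array, read by NGS. The value is the raw area under the fraction-flipped curve over 0-4 h after rhamnose induction (AUC4h), with ≥20 reads per time point. It is not background-subtracted; inactive controls average about 0.047.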
# 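Also: Bxb1 expression induced with 0.2% (w/v) L-rhamnose at OD600 near 0.5, cultures sampled hourly, flipped fraction per protease–substrate barcode pair counted by paired-end Illumina sequencing.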
variant,measurement,value
S17M,area with substrate ENLYFQA,0.103
same,area with substrate ENLYFQC,0.132
same,area with substrate ENLYFQD,0.0757
same,area with substrate ENLYFQE,0.0219
same,area with substrate ENLYFQF,0.0771
same,area with substrate ENLYFQG,0.0801
same,area with substrate ENLYFQH,0.0658
same,area with substrate ENLYFQI,0.055
same,area with substrate ENLYFQK,0.0568
same,area with substrate ENLYFQL,0.0651
same,area with substrate ENLYFQM,0.101
same,area with substrate ENLYFQN,0.0877
same,area with substrate ENLYFQP,0.0642
same,area with substrate ENLYFQQ,0.0686
same,area with substrate ENLYFQR,0.0553
same,area with substrate ENLYFQS,0.104
same,area with substrate ENLYFQV,0.0589
same,area with substrate ENLYFQW,0.0681
same,area with substrate ENLYFQY,0.0745
S17V,area with substrate ENLYFQA,0.0876
same,area with substrate ENLYFQC,0.104
same,area with substrate ENLYFQD,0.0748
same,area with substrate ENLYFQE,0.0629
same,area with substrate ENLYFQF,0.0829
same,area with substrate ENLYFQG,0.102
same,area with substrate ENLYFQH,0.0821
same,area with substrate ENLYFQI,0.078
same,area with substrate ENLYFQK,0.0414
same,area with substrate ENLYFQL,0.0683
same,area with substrate ENLYFQM,0.09
same,area with substrate ENLYFQN,0.0668
same,area with substrate ENLYFQP,0.0558
same,area with substrate ENLYFQQ,0.0907
same,area with substrate ENLYFQS,0.0969
same,area with substrate ENLYFQT,0.0802
same,area with substrate ENLYFQV,0.072
same,area with substrate ENLYFQW,0.07
same,area with substrate ENLYFQY,0.0679
S18I,area with substrate ENLYFQA,0.103
same,area with substrate ENLYFQD,0.0685
same,area with substrate ENLYFQE,0.0639
same,area with substrate ENLYFQF,0.0799
same,area with substrate ENLYFQG,0.111
same,area with substrate ENLYFQI,0.0558
same,area with substrate ENLYFQK,0.0605
same,area with substrate ENLYFQL,0.0605
same,area with substrate ENLYFQM,0.072
same,area with substrate ENLYFQN,0.0735
same,area with substrate ENLYFQR,0.0655
same,area with substrate ENLYFQS,0.095
same,area with substrate ENLYFQT,0.0619
same,area with substrate ENLYFQW,0.0541
L22T,area with substrate ENLYFQA,0.0667
same,area with substrate ENLYFQC,0.0669
same,area with substrate ENLYFQD,0.0481
same,area with substrate ENLYFQH,0.0544
same,area with substrate ENLYFQI,0.0375
same,area with substrate ENLYFQL,0.0447
same,area with substrate ENLYFQM,0.0438
same,area with substrate ENLYFQN,0.0548
same,area with substrate ENLYFQP,0.0584
same,area with substrate ENLYFQQ,0.054
same,area with substrate ENLYFQR,0.0452
same,area with substrate ENLYFQS,0.0558
same,area with substrate ENLYFQT,0.0488
same,area with substrate ENLYFQV,0.0369
same,area with substrate ENLYFQW,0.0486
same,area with substrate ENLYFQY,0.0376
G28E,area with substrate ENLYFQA,0.0835
same,area with substrate ENLYFQC,0.12
same,area with substrate ENLYFQG,0.103
same,area with substrate ENLYFQH,0.0708
same,area with substrate ENLYFQK,0.0654
same,area with substrate ENLYFQL,0.0605
same,area with substrate ENLYFQM,0.0958
same,area with substrate ENLYFQN,0.0774
same,area with substrate ENLYFQQ,0.0669
same,area with substrate ENLYFQS,0.0936
same,area with substrate ENLYFQT,0.0577
same,area with substrate ENLYFQV,0.0587
same,area with substrate ENLYFQW,0.0574
same,area with substrate ENLYFQY,0.0662
G28P,area with substrate ENLYFQA,0.102
same,area with substrate ENLYFQC,0.0833
same,area with substrate ENLYFQF,0.0561
same,area with substrate ENLYFQG,0.0748
same,area with substrate ENLYFQH,0.0933
same,area with substrate ENLYFQI,0.048
same,area with substrate ENLYFQK,0.0623
same,area with substrate ENLYFQL,0.06
same,area with substrate ENLYFQN,0.0881
same,area with substrate ENLYFQP,0.0709
same,area with substrate ENLYFQR,0.0629
same,area with substrate ENLYFQS,0.0774
same,area with substrate ENLYFQT,0.067
same,area with substrate ENLYFQV,0.0305
same,area with substrate ENLYFQW,0.0663
same,area with substrate ENLYFQY,0.0651
